Results reported in the supplement of paper PMC4967469.
Lines with a small IC50 respond at low doses; a fit beyond the top or the lowest dose is shown as a bound at that dose. AUC sums up the same curve from the lowest dose to the 256-fold higher top dose; the more sensitive the line, the further below 1. For some of these results: Where the top dose is marked as inferred, it was calculated from the reported fits. For some of these results: Drugs with an entry number were screened twice under separate entries, and the two screens often disagree.

Tests used:
Assay in all cases: Viability of human cancer cell lines after 72 h of drug (GDSC screen)
Tretinoin = compound: CC1=C(/C=C/C(C)=C/C=C/C(C)=C/C(=O)O)C(C)(C)CCC1 [Tretinoin]; conditions: top dose 10 µM; top dose inferred
Procedure: (§1)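 Human cancer cell lines in 384-well plates, medium with 10% serum, drug for 72 h over a 256-fold dose range (nine 2-fold or five 4-fold steps up to the top dose). Adherent lines were fixed and stained with the nucleic acid dye Syto60, suspension lines read with resazurin; signal relative to control wells, capped at 0 and 100%. One two-parameter sigmoid per drug and line, fitted in a mixed model over all curves with the slope shared within a line.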

GSK690693 = compound: CCn1c(-c2nonc2N)nc2c(C#CC(C)(C)O)ncc(OC[C@H]3CCCNC3)c21 [GSK690693]; conditions: top dose 10.24 µM; top dose inferred
Procedure: as §1

UNC0638 = compound: COc1cc2c(NC3CCN(C(C)C)CC3)nc(C3CCCCC3)nc2cc1OCCCN1CCCC1 [UNC0638]
Procedure: as §1

WH-4-023 = compound: COc1ccc(N(C(=O)Oc2c(C)cccc2C)c2ccnc(Nc3ccc(N4CCN(C)CC4)cc3)n2)c(OC)c1 [WH-4-023]; conditions: top dose 5.12 µM; top dose inferred
Procedure: as §1

SB-505124 = compound: Cc1cccc(-c2[nH]c(C(C)(C)C)nc2-c2ccc3c(c2)OCO3)n1 [SB-505124]; conditions: top dose 10 µM; top dose inferred
Procedure: as §1

BX-795 = compound: O=C(NCCCNc1nc(Nc2cccc(NC(=O)N3CCCC3)c2)ncc1I)c1cccs1 [BX-795]; conditions: top dose 5 µM; top dose inferred
Procedure: as §1

PI-103 = compound: Oc1cccc(-c2nc(N3CCOCC3)c3oc4ncccc4c3n2)c1 [PI-103]; conditions: top dose 10.24 µM
Procedure: as §1

[1] = top dose 20 µM, screen: GDSC drug entry 1236, top dose inferred
[2] = top dose 40 µM, screen: GDSC drug entry 245

Cell Line	AUC (Tretinoin)	IC50 (Tretinoin) [µM]	AUC (GSK690693)	IC50 (GSK690693) [µM]	AUC (UNC0638; [1])	IC50 (UNC0638; [1]) [µM]	AUC (UNC0638; [2])	IC50 (UNC0638; [2]) [µM]	AUC (WH-4-023)	IC50 (WH-4-023) [µM]	AUC (SB-505124)	IC50 (SB-505124) [µM]	AUC (BX-795)	IC50 (BX-795) [µM]	AUC (PI-103)	IC50 (PI-103) [µM]
BE2-M17 (neuroblastoma, adherent)	0.962	> 10	0.987	> 10.2	0.942	> 20	0.924	> 40	0.987	> 5.12	0.917	> 10	0.883	> 5	0.832	6.83
BE-13 (lymphoblastic leukaemia, suspension)	0.916	> 10	0.98	> 10.2	0.71	4.68	0.541	3.2	0.891	> 5.12	0.978	> 10	0.603	0.586	0.76	3.39
BV-173 (chronic myeloid leukaemia, suspension)	0.6	1.13	0.91	> 10.2	0.718	4.75	0.697	8.25	0.125	0.0254	0.969	> 10	0.61	0.601	0.407	0.368
Becker (glioma, adherent)	0.978	> 10	0.888	> 10.2	0.833	15.3	0.968	> 40	0.324	0.0967	0.962	> 10	0.814	3.17	0.391	0.308
C2BBe1 (large intestine, adherent)	0.933	> 10	0.976	> 10.2	0.978	> 20	0.942	> 40	0.845	4.48	0.96	> 10	0.875	> 5	0.638	1.63
CA46 (Burkitt lymphoma, suspension)	0.962	> 10	0.815	6.14	0.75	6.98	0.464	1.98	0.873	> 5.12	0.959	> 10	0.944	> 5	0.226	0.0948
CAS-1 (glioma, adherent)	0.981	> 10	0.915	> 10.2	0.894	> 20	0.81	31.3	0.681	1.24	0.977	> 10	0.831	4.91	0.662	2.13
CCRF-CEM (lymphoblastic leukaemia, suspension)	0.939	> 10	0.311	0.209	0.668	3.36	0.523	2.86	0.989	> 5.12	0.966	> 10	0.616	0.615	0.293	0.187
CESS (acute myeloid leukaemia, suspension)	0.988	> 10	0.231	0.123	0.824	9.67			0.977	> 5.12	0.977	> 10	0.991	> 5	0.104	0.0437
CGTH-W-1 (thyroid, adherent)	0.986	> 10	0.982	> 10.2	0.609	2.48	0.775	15.8	0.979	> 5.12	0.947	> 10	0.533	0.384	0.464	0.511
CHP-126 (neuroblastoma, suspension)	0.95	> 10	0.981	> 10.2	0.824	12.4	0.657	6.93	0.964	> 5.12	0.956	> 10	0.779	2.1	0.89	> 10.2
CL-11 (large intestine, adherent)	0.975	> 10	0.987	> 10.2	0.977	> 20	0.987	> 40	0.986	> 5.12	0.986	> 10	0.901	> 5	0.962	> 10.2
LU-65 (large cell lung carcinoma, suspension)	0.983	> 10	0.963	> 10.2					0.975	> 5.12	0.979	> 10	0.987	> 5	0.494	0.613
NCI-H64 (small cell lung carcinoma, suspension)	0.996	> 10	0.01	< 0.04			0.759	10.8	0.996	> 5.12			0.934	4.73	0.146	0.0814
NCI-H510A (small cell lung carcinoma, semi-adherent)	0.979	> 10	0.99	> 10.2			0.725	10.2	0.968	> 5.12			0.897	> 5	0.884	9.45
RCC10RGB (kidney, adherent)	0.972	> 10	0.972	> 10.2			0.889	> 40	0.451	0.207			0.931	> 5	0.759	7.79
SUP-B15 (lymphoblastic leukaemia, suspension)	0.91	> 10	0.905	> 10.2			0.565	3.73	0.266	0.0714			0.719	1.26	0.172	0.0685
SW954 (urogenital system, adherent)	0.961	> 10	0.908	> 10.2			0.879	> 40	0.381	0.149			0.852	3.94	0.753	3.45
